# Measurements from the antibiotic and cytotoxicity screens of Wong et al. (2023).
# The other results are listed elsewhere or left out.
# System: HepG2
# Experiment: cytotoxicity call (relative viability < 0.9)
# Settings: 10 µM
row,Structure (SMILES),cytotoxicity call
1,Cc1ccccc1S(=O)(=O)N1C[C@@H](O)COC[C@H]2O[C@H](CC(=O)NCc3ccc(Cl)c(Cl)c3)CC[C@@H]21,inactive
2,NCC[C@H]1CC[C@H](NC(=O)Cc2ccncc2)[C@H](CO)O1,inactive
3,CN1CCN2CCN(C(=O)c3cccc(N)c3)C[C@@H]2C1=O,inactive
4,O=C(O)C12C3CCC4C5C3C1C5(C(=O)O)C42 (configuration not stated),inactive
5,C[C@H](CO)N1C[C@H](C)[C@H](CN(C)Cc2ccccn2)Oc2cc(C#CCN(C)C)ccc2S1(=O)=O,inactive
6,C/C=C/c1cnc2c(c1)C(=O)N([C@@H](C)CO)C[C@@H](C)[C@@H](CN(C)S(=O)(=O)c1ccc(OC)cc1)O2,inactive
7,CN(c1ncccc1CNc1nc(Nc2ccc3c(c2)CC(=O)N3)ncc1C(F)(F)F)S(C)(=O)=O,active
8,C[C@@H]1CN([C@H](C)CO)S(=O)(=O)c2ccc(C#CC3(O)CCCC3)cc2O[C@@H]1CN(C)C(=O)Nc1ccc(F)cc1,inactive
9,C[C@H]1CN([C@@H](C)CO)C(=O)Cc2cc(NC(=O)Cn3cnnn3)ccc2O[C@@H]1CN(C)Cc1ccccc1,inactive

# System: S. aureus RN4220
# Experiment: growth inhibition call (relative growth <= 0.2)
# Settings: 50 µM
row,Structure (SMILES),growth inhibition call
1,C[C@@H]1CN([C@H](C)CO)C(=O)c2cccc(NC(=O)c3cnccn3)c2O[C@H]1CN(C)S(C)(=O)=O,inactive
2,Cc1noc(C)c1NC(=O)N(C)C[C@H]1Oc2ccc(NC(=O)Cn3cnnn3)cc2CC(=O)N([C@@H](C)CO)C[C@@H]1C,inactive
3,CN(C)/C=N/[C@@H]1N=C(C2CC2)N(C)C(=O)N1,inactive
4,COc1ccc(CN(C)C[C@@H]2Oc3ccc(NC(=O)Cn4cnnn4)cc3C(=O)N([C@H](C)CO)C[C@@H]2C)cc1,inactive
5,C[C@@H]1CCCCO[C@@H](CN(C)Cc2ccncc2)[C@H](C)CN([C@@H](C)CO)C(=O)c2cc(NC(=O)CCC(F)(F)F)ccc2O1,inactive
6,C[C@@H]1CN([C@@H](C)CO)C(=O)Cc2cc(NS(=O)(=O)c3ccc(F)cc3)ccc2O[C@@H]1CN(C)S(C)(=O)=O,inactive
7,CCCN(C)C[C@@H]1OCCCC[C@H](C)Oc2ccc(NC(=O)C3CCCCC3)cc2C(=O)N([C@@H](C)CO)C[C@@H]1C,inactive
8,CNC(=O)c1c(O)c2ccccc2[nH]c1=O,inactive
9,O=C1C[C@@H](O)[C@@H](O)c2c(O)cccc21,inactive
10,COc1ccc(NC(=O)Nc2ccc3c(c2)C(=O)N([C@@H](C)CO)C[C@H](C)[C@@H](CN(C)Cc2ccncc2)OCCCC[C@H](C)O3)cc1,inactive
11,CS(=O)(=O)N1[C@@H]2Cn3c(ccc(C4=CCCCC4)c3=O)[C@H]1[C@@H](C(=O)N1CCOCC1)[C@@H]2CO,inactive
12,COc1ccc(S(=O)(=O)N(C)C[C@@H]2OCc3cn(nn3)CCCC(=O)N([C@H](C)CO)C[C@H]2C)cc1,inactive
13,COc1ccc(NC(=O)N(C)C[C@@H]2Oc3ccc(NC(=O)Nc4ccc(C(F)(F)F)cc4)cc3C(=O)N([C@@H](C)CO)C[C@H]2C)cc1,inactive
14,Cc1ccc(S(=O)(=O)N(C)C[C@H]2Oc3c(NC(=O)Nc4ccc(C(F)(F)F)cc4)cccc3C(=O)N([C@H](C)CO)C[C@H]2C)cc1,inactive
15,Cc1noc(C)c1S(=O)(=O)Nc1ccc2c(c1)C(=O)N([C@@H](C)CO)C[C@@H](C)[C@H](CN(C)Cc1ccc(Oc3ccccc3)cc1)O2,inactive
16,CO[C@@H]1CN(C)C(=O)c2cc(NC(=O)C3CC3)ccc2OC[C@@H](C)N(C(=O)CN2CCOCC2)C[C@H]1C,inactive
17,Cc1ccc(S(=O)(=O)Nc2cccc3c2O[C@@H](CN(C)CC2CC2)[C@H](C)CN([C@H](C)CO)C3=O)cc1,inactive
18,COCN(C#N)c1nc(N(C)C)nc(N(C)C)n1,inactive
19,C[C@@H]1CN([C@@H](C)CO)C(=O)c2cccc(NS(C)(=O)=O)c2O[C@H]1CN(C)S(=O)(=O)c1ccc(Cl)cc1,inactive
20,C[C@H](CO)N1C[C@H](C)[C@H](CN(C)C(=O)Nc2ccc(F)cc2)Oc2ccc(NC(=O)CCN3CCOCC3)cc2C1=O,inactive
21,C[C@@H]1CN([C@@H](C)CO)C(=O)Cc2cc(NC(=O)NC3CCCCC3)ccc2O[C@H]1CN(C)S(C)(=O)=O,inactive
22,C[C@H](CO)N1C[C@H](C)[C@@H](CN(C)C(=O)NC2CCCCC2)Oc2ccc(NC(=O)Nc3ccc(C(F)(F)F)cc3)cc2C1=O,inactive
23,C[C@H]1CN([C@@H](C)CO)C(=O)c2cc(NC(=O)Nc3cccc4ccccc34)ccc2O[C@@H]1CN(C)C(=O)Nc1cccc2ccccc12,inactive
